According to patent publication US20190016771A1 (Hoffmann-La Roche, published 2019):

Biological target: T1, human 4-1BB (CD137) on the cell surface (human, UniProt Q07011 24-255)
T1 construct: whole, on cells; also called HeLa-huCD137-NF-kB-luciferase reporter cells
Experiment: flow cytometry on activated human CD8+ T cells (PBMC), detection with PE-labelled anti-human IgG F(ab')2-specific goat F(ab')2, median fluorescence, baseline corrected
Description: Plates were centrifuged 4 minutes with 400×g and at 4° C. and supernatant was discarded. If cells were fixed before acquisition by flow cytometry they were washed once with 200 μL/well DPBS and then stained for 30 min at 4° C. with […] DPBS containing 1:1000 diluted LIVE/DEAD Fixable Aqua Dead Cell Stain (Life technologies, Molecular Probes, Cat-No.: L34957). If cells were acquired the same day and DAPI was used to discriminate dead cells this staining step was skipped. Afterwards cells were washed once with 200 μL cold FACS buffer (DPBS supplied with 2% (v/v) FBS, 5 mM EDTA pH8 (Amresco, Cat. No. E177) and 7.5 mM sodium azide (Sigma-Aldrich S2002)). Next, 50 μL/well of 4° C. cold FACS buffer containing FAP-targeted CMP trimeric 4-1BB ligand-containing antigen binding molecule, DP47-targeted CMP trimeric 4-1BB ligand-containing antigen binding molecule or not-specific binding huIgG1 P329G LALA control antibody were added and cells were incubated for 120 minutes at 4° C. Cells were washed four times with 200 μL/well 4° C. FACS buffer. […]

T1 sequence (Q07011 24-255): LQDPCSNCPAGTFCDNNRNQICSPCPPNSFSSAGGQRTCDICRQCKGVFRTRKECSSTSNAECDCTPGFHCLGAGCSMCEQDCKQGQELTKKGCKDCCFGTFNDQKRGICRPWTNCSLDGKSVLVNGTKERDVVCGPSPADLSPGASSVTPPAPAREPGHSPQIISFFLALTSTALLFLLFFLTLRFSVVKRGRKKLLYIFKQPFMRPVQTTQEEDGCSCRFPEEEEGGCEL

B1: DP47 untargeted human CMP (CMPtd) trimeric 4-1BBL(71-254)-containing antigen binding molecule (other)
chain: [… about 100 residues …]GSGFDYWGQGTLVTVSSASTKGPSVFPLAPSSKSTSGGTAALGCLVKDYFPEPVTVSWNSGALTSGVHTFPAVLQSSGLYSLSSVVTVPSSSLGTQTYICNVNHKPSNTKVDKKVEPKSCDGGGGSGGGGSEEDPCACESLVKFQAKVEGLLQALTRKLEAVSKRLAILENTVVSGGGGSGGGGSGGGGSGGGGSREGPELSPDDPAGLLDLRQGMFAQLVAQNVLLIDGPLSWYSDPGLAGVSLTGGLSYKEDTKELVVAKAGVYYVFFQLELRRVVAGEGSGSVSLALHLQPLRSAAGAAALALTVDLPPASSEARNSAFGFQGRLLHLSAGQRLGVHLHTEARARHAWQLTQGATVLGLFRVTPEIPAGLPSPRSE
light: [… about 100 residues …][… about 100 residues …]
notes: Untargeted control of m1; trimerizes via the CMP trimerization domain; also called trimeric DP47-huCMP-4-1BBL
B1 was tested, and the “EC50 (read off the curve)” value was ~600 pM.
